{
  "source": "the RNAGym collection of RNA variant scans (doi:10.7554/elife.90254)",
  "parents": {"B1": {"name": "LINE1-mini (parent)", "chain": "GGCAGAGCUCAACACAGCGUGGCAAAGUGGCUGUGGCUAGACUGCC"}},
  "note": "Read counts are not given, so values of variants with three or more changes are uncertain.",
  "data": [
    {"variants_of": "B1", "experiment": "self-cleavage, relative activity (ratio to wild type); higher = more cleavage; in vitro, sequencing; the parent is a self-cleaving ribozyme", "values": [
      {"variant": "A4G G29A U43G G44A", "self-cleavage": 0.03},
      {"variant": "A6G G17A C23A", "self-cleavage": 0.05},
      {"variant": "G2C C3A A14U U20C", "self-cleavage": 0.11},
      {"variant": "G2U C3A A4C C23A G30A G33U C45G", "self-cleavage": 0.03},
      {"variant": "A6G C10G G27C G35U U43C", "self-cleavage": 0.01},
      {"variant": "G1U A4G U43C", "self-cleavage": 1.73},
      {"variant": "G22U G27C G35C", "self-cleavage": 0.16},
      {"variant": "G1C G7A C13A C15U G21U A26U U32A G36A", "self-cleavage": 0.02},
      {"variant": "G2U C3A C18A", "self-cleavage": 0.23},
      {"variant": "A6G A12G U20G G36U", "self-cleavage": 0.01},
      {"variant": "G2A A12C G22U G33C A41C C46U", "self-cleavage": 0.01},
      {"variant": "G1U U9A C10U G36C C46A", "self-cleavage": 0.02},
      {"variant": "C3G A6C U34G G35C C37U C42U C46U", "self-cleavage": 0.12},
      {"variant": "A4C A25G A39U C42A", "self-cleavage": 0.72},
      {"variant": "A14U G21A G22U U28C", "self-cleavage": 0.64},
      {"variant": "G1C C10A U20G G33C G36U", "self-cleavage": 0.01},
      {"variant": "G1U G7A A25U G27A C42A", "self-cleavage": 0.04},
      {"variant": "A11C C13U A16C G22A U38A", "self-cleavage": 0},
      {"variant": "G22C G33U C37G", "self-cleavage": 0.12},
      {"variant": "C10U C18U U20A", "self-cleavage": 0.32},
      {"variant": "A16G U34C A41G", "self-cleavage": 0.01},
      {"variant": "A12C A25G G29U C37A A41U", "self-cleavage": 0},
      {"variant": "U9G G21A G22C", "self-cleavage": 0.16},
      {"variant": "G17U A26C C46U", "self-cleavage": 0.06},
      {"variant": "A4G C15G G30C C46G", "self-cleavage": 0.18},
      {"variant": "G2C C3A A4U A6U G21C A24U U32A U34C", "self-cleavage": 0.01},
      {"variant": "G17A G30U G40U", "self-cleavage": 0.58},
      {"variant": "G7U A14U G40U", "self-cleavage": 0.04},
      {"variant": "U28C G29U C31U U32C", "self-cleavage": 0.03},
      {"variant": "G2C C15G U28G", "self-cleavage": 0.04},
      {"variant": "G1U C10G G30U U43C", "self-cleavage": 0.01},
      {"variant": "G5A C10A A14U U38C A41C", "self-cleavage": 0.02},
      {"variant": "G27A U34C A39G", "self-cleavage": 0.03},
      {"variant": "C15U A16G C31G U32C G44U", "self-cleavage": 0.03},
      {"variant": "G5U G29A G30A C31A", "self-cleavage": 0.06},
      {"variant": "C10U A24G G27U", "self-cleavage": 0.06},
      {"variant": "C3U C10G U20G", "self-cleavage": 0.02},
      {"variant": "U9A C15U G29C", "self-cleavage": 0.12},
      {"variant": "A11U C15G C37U", "self-cleavage": 0.01},
      {"variant": "C10A C15G G40A C42G", "self-cleavage": 0.03},
      {"variant": "G1A G5A G7C U9A", "self-cleavage": 0.5},
      {"variant": "G2C G22C A25U C37U", "self-cleavage": 0.05},
      {"variant": "G19C A25U G29C", "self-cleavage": 0.44},
      {"variant": "G1C G7C G19U U43A", "self-cleavage": 0.01},
      {"variant": "G5U U20G G22U C42U G44C", "self-cleavage": 0.05},
      {"variant": "G7U A24U C42A", "self-cleavage": 0.02},
      {"variant": "C3G G5U A14C U34G", "self-cleavage": 0.03},
      {"variant": "G5A U20G A25U", "self-cleavage": 0.15},
      {"variant": "G1C A26G G33A U34C C37U G40C", "self-cleavage": 0},
      {"variant": "G2U A4U G17U", "self-cleavage": 0.02},
      {"variant": "G27A C31A G33U", "self-cleavage": 0.1},
      {"variant": "A6U C45G C46A", "self-cleavage": 0.25},
      {"variant": "G17U G30A C46G", "self-cleavage": 0.97},
      {"variant": "G7A C10A C15A G22U C23U U32C", "self-cleavage": 0.03},
      {"variant": "G1C A25C G29A G30C G35A A39U", "self-cleavage": 0.03},
      {"variant": "C15G U20A G29A", "self-cleavage": 0.03},
      {"variant": "C15A C31U G33A G40U C46A", "self-cleavage": 0.01},
      {"variant": "G2A C3A A16C", "self-cleavage": 0.83},
      {"variant": "G1C G21C C42G", "self-cleavage": 0},
      {"variant": "G29U A39U C42A", "self-cleavage": 0.3},
      {"variant": "C10U G17U C23A", "self-cleavage": 0.05},
      {"variant": "A16U A25G A39U", "self-cleavage": 0.08},
      {"variant": "G7A C8A U20G G33C", "self-cleavage": 0.05},
      {"variant": "G2C C10A C15G C23G U32A U34A A39C", "self-cleavage": 0},
      {"variant": "U9C A25G G30U", "self-cleavage": 0.05},
      {"variant": "G5U U28C U43C", "self-cleavage": 0.03},
      {"variant": "A16C G21U G22U G27U A41C G44U", "self-cleavage": 0.02},
      {"variant": "A25G U43A C46A", "self-cleavage": 0.04},
      {"variant": "A16G G19U G27C", "self-cleavage": 0.13},
      {"variant": "G2U C8A G44U", "self-cleavage": 0.05},
      {"variant": "A4C C10A U34G C42A", "self-cleavage": 0.01},
      {"variant": "C15A G36U A41C C46G", "self-cleavage": 0.03},
      {"variant": "G1A C3A G7A U9C A14G G17A A26U G27U", "self-cleavage": 0.88},
      {"variant": "G1C G17A G35U", "self-cleavage": 0.02},
      {"variant": "G2C G17U G30C U34C", "self-cleavage": 0.03},
      {"variant": "G19C U38A A41U", "self-cleavage": 0.03},
      {"variant": "A4C U20C U28A A39U", "self-cleavage": 0.04},
      {"variant": "U20A U28A G29C", "self-cleavage": 0.21},
      {"variant": "U9G C45A C46U", "self-cleavage": 0.11},
      {"variant": "C13U G17A C31G", "self-cleavage": 0.06},
      {"variant": "G5C G33C U43C", "self-cleavage": 0.03},
      {"variant": "C8U A11U C23G", "self-cleavage": 0.01},
      {"variant": "A6C G17U C31U C46A", "self-cleavage": 0.09},
      {"variant": "G7A C8G C45G", "self-cleavage": 0.05}
    ]}
  ]
}
